Experimental data taken from PubChem BioAssay AID651820 (National Center for Advancing Translational Sciences (NCATS), 2012).
About 12,000 (3.5%) of roughly 340,000 compounds were called active. This list was built around the results that the source calls inconclusive (neither active nor inactive); the mix of calls is not that of the screen. The call rests on the fitted dose curve; in most records, active means well fitted inhibition curve with a large enough effect; inconclusive means small, poorly fitted or top-dose-only effect, or another doubt; inactive means no such curve, though single readings can be large or run the other way. No potency is given beside an inconclusive call; the fits are too rough.

Experiment: qHTS Assay for Inhibitors of Hepatitis C Virus (HCV)
Conditions: Huh7.5.1 HCVcc-Cre (HCVcc is cell-culture hepatitis C virus) infection, luciferase reporter, 44 h; activity change, negative = inhibition: at 41.8 µM (top of the series) unless noted
Summary of the method: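 Whole-lifecycle infectious HCVcc-Cre system; cells 1,000/well, compound then virus (~0.5 moi) added 4 h after plating, 44 h culture. Luciferase read 15 sec following 15 min substrate incubation, room temp.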
On the % scale 0 is the no-effect control and ±100 the full control effect; potency means the concentration at half of the fitted maximal effect; tags describe the fitted curve by direction and shape.

Compound	Potency	activity change, negative = inhibition
O=C(c1cc2cc(Br)ccc2oc1=O)N1CCCC1	inactive	–
COc1ccc(O)c(/C=N/NC(=S)NCCc2ccccc2)c1	inconclusive [inhibitor, single point]	–
CCOC(=O)c1ccc(Nc2nc(C)cc(C)c2C#N)cc1	inconclusive [inhibitor, full curve]	–
CCCCn1c(N)c(N(CCOC)C(=O)c2ccc(N3CCCC3)c([N+](=O)[O-])c2)c(=O)[nH]c1=O	inconclusive [inhibitor, single point]	–
CSCCC(NS(=O)(=O)c1ccc2c(c1)OCCO2)C(=O)N(C)Cc1ccc(F)cc1 (centres undefined)	inactive	–
CSCC[C@H](NC(=O)[C@@H]1Cc2c([nH]c3ccccc23)C2c3ccccc3C(=O)N21)C(=O)NCC1CCCO1 (some centres undefined)	inactive	–
O=C(CN1C(=O)S/C(=C\c2ccccc2F)C1=O)Nc1ccccc1O	inconclusive [inhibitor, single point]	–
CCCC(=O)c1ccc(N2CCN(C(=O)c3ccc(Br)cc3)CC2)c(F)c1	inconclusive [inhibitor, partial curve, poor fit]	–
Cc1cc(C)nc(/N=C(\N)Nc2ccc(S(=O)(=O)Nc3nccc(C)n3)cc2)n1	inconclusive [inhibitor, partial curve, poor fit]	–
CC(=O)Oc1cc2c(C(=O)NCc3ccncc3)c(C)oc2c2ccccc12	active: 11.2 µM	–
COc1cccc(CSc2nc3cc4c(cc3cc2C)OCCO4)c1	inconclusive [inhibitor, single point]	–
CCc1ccc(OCC(=O)NC2CCCCC2)c(Br)c1	inconclusive [inhibitor, single point]	–
Nc1nnnn1/N=C/c1ccc(N2CCCCC2)c([N+](=O)[O-])c1	inconclusive [inhibitor, partial curve]	–
CN1CCN(C(=O)c2ccccc2-c2nc(-c3ccccc3)no2)CC1	inactive	–
CC1=CC(C)(C)N2C(=O)C3(C(C#N)=C(N)Oc4cc(O)ccc43)c3c(C)c(C)cc1c32 (centres undefined)	inconclusive [inhibitor, single point]	–
CCOc1ccc(/C=N/NC(=O)c2cc(-c3ccco3)nc3ccccc23)cc1	inconclusive [inhibitor, partial curve]	–
NC1(C(=O)O)CSSC1	inconclusive [inhibitor, single point]	–
CSc1oc(-c2ccco2)nc1S(=O)(=O)c1ccc(C)cc1	inactive	–
COc1ccc(CNC(=O)CN2C(=O)c3ccccc3S2(=O)=O)cc1	inactive	–
CN(C)C(=O)C(OC(=O)c1ccc2c(c1)CCCC2)c1ccccc1 (centres undefined)	inconclusive [inhibitor, single point]	–
O=C(Nc1ccc(N2CCCC2)c(S(=O)(=O)Nc2cccc(C(F)(F)F)c2)c1)c1cccs1	inconclusive [inhibitor, single point]	–
O=C(N/N=C/c1cn(-c2ccccc2)nc1-c1cc2ccccc2o1)c1ccccc1Br	inconclusive [inhibitor, full curve]	–
CC1Cc2nc(SCC(=O)Nc3nc4ccccc4s3)n(C)c(=O)c2S1 (centres undefined)	inconclusive [inhibitor, single point]	–

Compound	Potency	activity change, negative = inhibition
COc1ccccc1/C=N/n1c(N)c(S(=O)(=O)c2cccs2)c2nc3ccccc3nc21	inactive	–
Fc1ccc2[nH]c3c(N4CCN(Cc5ccc6c(c5)OCO6)CC4)ncnc3c2c1	active: 2.51 µM	–
O=C(CCN1C(=O)NC2(CCCC2)C1=O)Nc1ccc(-c2nc3ccccc3s2)cc1	inconclusive [inhibitor, partial curve]	–
COC(=O)c1c(NC(=O)CN2CCOCC2)sc2c1CCC(C)C2 (centres undefined)	inconclusive [inhibitor, full curve, poor fit]	–
CCOc1ccc2oc(C(=O)NCc3ccccc3CN3CCCC3)c(C)c2c1	active: 15.8 µM	–
CCOC(=O)c1cnc2cc(-c3ccc(Br)cc3)nn2c1C	inactive	–
COc1cc(C(=O)NC2CCN(C)CC2)ccc1Nc1ncc2c(n1)N(C1CCCCC1)CCC(=O)N2C	active: 1.78 µM	–
CC(C)(C)c1ccc(S(=O)(=O)N2CCC(c3nc4ccc(Cl)cc4[nH]3)CC2)cc1	inconclusive [inhibitor, partial curve]	–
CCOC(=O)C(=CNc1ccc(C(O)(C(=O)OCC)C(F)(F)F)cc1C)C(=O)OCC (centres undefined)	inconclusive [inhibitor, partial curve]	–
O=C(NCC1CCCO1)c1ccc(COc2ccc(F)cc2)o1 (centres undefined)	inactive	–
COc1ccc(CCNC(=O)CO/N=C/c2cc3c(cc2Br)OCO3)cc1OC	inconclusive [inhibitor, partial curve]	–
Cc1cccc(C(=O)Nc2cccc(C(=O)N/N=C/c3ccc4c(c3)OCO4)c2)c1	inconclusive [inhibitor, single point]	–
O=S(=O)(Nc1nc2ccccc2nc1N1CCN(c2ccccc2F)CC1)c1ccc(Cl)cc1	inconclusive [inhibitor, single point]	–
COc1ccc(OC)c(-c2csc(NC(=O)Cc3ccccc3OC)n2)c1	inconclusive [inhibitor, partial curve]	–
O=C(/C=C/c1ccccc1[N+](=O)[O-])NNC(=O)c1ccncc1	inactive	–
Nc1cc(Cl)nc(N/N=C/c2c(O)ccc3ccccc23)n1	inconclusive [inhibitor, single point]	–
O=C(O)c1cnn2c1NC(c1cccs1)CC2C(F)(F)F (centres undefined)	inactive	–
c1ccc(CCNc2nc(-c3ccccn3)nc3ccccc23)cc1	active: 2.82 µM	–
C=CCn1c(=S)[nH]c2cc(C(=O)N3CCN(c4ccccc4OC)CC3)ccc2c1=O	inconclusive [inhibitor, single point]	–
COc1ccc(NC(=O)C(Sc2nnc(-c3ccncc3)n2-c2ccccc2C)c2ccccc2)cc1Cl (centres undefined)	inconclusive [inhibitor, single point]	–
Cc1cc(OCc2nc(-c3cccnc3)no2)c(C)cc1Br	inactive	–
COC(=O)C1CCN(Cc2cn(Cc3ccccc3)nc2-c2cc3ccccc3o2)CC1	inconclusive [inhibitor, single point]	–
O=C(NCCCCc1ccccc1)c1ccc(Br)cc1	inactive	–

Compound	Potency	activity change, negative = inhibition
COc1cccc(/C=C/C(=O)Nc2ccc3c(c2)OCCO3)c1	inconclusive [inhibitor, partial curve]	–
CCn1c(=O)c(=O)[nH]c2cc(C(=O)NC3CC3)ccc21	inconclusive [inhibitor, single point]	–
O=C(O)c1cc(N2N=C(C(F)(F)F)/C(=C/C=C/c3ccco3)C2=O)ccc1Cl	inactive	–
O=C(N/N=C/c1cccs1)c1n[nH]c2c1CCCC2	inactive	–
CC(C)Nc1cc(N2CCCC2)ccc1[N+](=O)[O-]	inconclusive [inhibitor, partial curve, poor fit]	–
Cc1cc(C)c(C)c(OCCCOc2cccc3cccnc23)c1	inconclusive [inhibitor, single point]	–
COc1cc2cnc(-c3ccccc3)c(C(=O)c3ccc(OCc4ccccc4)cc3)c2cc1OC	inconclusive [inhibitor, full curve]	–
O=C(CCN1C(=O)c2ccccc2S1(=O)=O)NCc1ccccc1	inactive	–
Cc1c(C(=O)Nc2ccc3c(c2)OCCO3)sc2nc(-c3ccccc3)cn12	active: 2.51 µM	–
Cc1cccc(N2CCN(C(=O)c3ccc4nc(-c5ccco5)c(-c5ccco5)nc4c3)CC2C)c1 (centres undefined)	active: 10 µM	–
CCCNC(=O)c1onc(CSc2cccc(OC)c2)c1C(=O)NCCC	inconclusive [inhibitor, partial curve]	–
CCCCCC(CC(=O)NO)C(=O)NC(C(=O)N1CCCC1CO)C(C)C (centres undefined)	inconclusive [inhibitor, full curve]	–
COC(=O)c1ccc(Cl)c(NC(=O)CN(c2ccc(OC)cc2)S(=O)(=O)c2ccccc2)c1	inconclusive [inhibitor, partial curve]	–
Cc1onc(-c2ccccc2Cl)c1C(=O)Nc1ccc(CN2CCCC2)cc1	inconclusive [inhibitor, single point]	–
CC1=NN(C(=O)CCc2ccccc2)C(O)(c2ccncc2)C1 (centres undefined)	inactive	–
CSc1nnc(-c2ccncc2)n1/N=C/c1cn(-c2ccccc2)nc1-c1ccc(Cl)cc1	–	inconclusive: -71.5% [inhibitor]
CC(=O)N1CCc2c(sc(NC(=O)C3CCCN3S(=O)(=O)c3cccs3)c2C#N)C1 (centres undefined)	inconclusive [inhibitor, full curve, poor fit]	–
CN(C)CCCN(Cc1ccccc1)C(=S)Nc1ccc(OC(F)F)cc1	inconclusive [inhibitor, partial curve]	–
Cc1cccc(N2CCCC2=Nc2ccc(Br)cc2C#N)c1	inconclusive [inhibitor, full curve]	–
Cc1ccc(-c2csc(NCCn3c(-c4ccncc4)nc4cc(C(F)(F)F)ccc43)n2)cc1	inactive	–
Cc1cc(C(=O)NCC(c2ccco2)N(C)C)ccc1[N+](=O)[O-] (centres undefined)	inactive	–
Cc1cccc(-n2c(O)c(C=Nc3ccccc3O)c3ccccc3c2=O)n1	inconclusive [inhibitor, single point]	–
COc1ccc(C(=O)Nc2ccc(O)c3ccccc23)cc1	inconclusive [inhibitor, single point]	–
